Test results reported in PubChem BioAssay (NCATS).
This list was built around the results that the source calls inconclusive (neither active nor inactive); the mix of calls is not that of the screen. For some assays here: A potency beside an inconclusive call is a rough fit, not a confirmed value. The source made the active and inactive calls. Unless noted, the call rests on the fitted dose curve; in most records, active means well fitted curve in the direction sought with a large enough effect; inconclusive means small, poorly fitted or top-dose-only effect, or another doubt; inactive means no such curve, though single readings can be large; an effect the other way counts as inactive or inconclusive.

Tests used:
[1] = biological target: Cytochrome P450 3A4 (Homo sapiens) (UniProt P08684); assay: Cytochrome P450 family 3 subfamily A member 4 (CYP3A4) small molecule antagonists: luciferase qHTS assay (AID 1645841; active means well fitted curve in the direction sought with a large enough effect in the repeat runs; inconclusive means weak or mixed curves; inactive means no such curve, though single readings can be large; an effect the other way counts as inactive or inconclusive; further: nearly all actives have a fitted effect of over 45% in size)
UniProt P08684, sequence (P08684 whole entry, looked up): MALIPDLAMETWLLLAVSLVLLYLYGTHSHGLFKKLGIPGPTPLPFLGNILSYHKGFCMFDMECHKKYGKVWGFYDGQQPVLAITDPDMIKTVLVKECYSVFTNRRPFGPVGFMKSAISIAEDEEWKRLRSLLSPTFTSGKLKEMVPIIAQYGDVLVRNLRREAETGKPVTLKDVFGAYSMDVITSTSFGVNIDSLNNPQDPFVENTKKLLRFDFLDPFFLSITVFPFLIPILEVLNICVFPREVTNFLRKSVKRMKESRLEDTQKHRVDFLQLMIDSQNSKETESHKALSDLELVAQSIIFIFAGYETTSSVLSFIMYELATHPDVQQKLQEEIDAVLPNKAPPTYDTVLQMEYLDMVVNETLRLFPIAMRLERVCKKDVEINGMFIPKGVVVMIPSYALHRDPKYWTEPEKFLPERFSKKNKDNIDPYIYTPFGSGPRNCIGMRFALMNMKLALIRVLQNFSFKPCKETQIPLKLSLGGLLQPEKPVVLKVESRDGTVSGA
Summary of the method: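 P450-Glo CYP3A4 enzyme with proluciferin substrate was preincubated with DMSO-dissolved compounds for 10 min at room temperature. NADPH regeneration solution started a 1 h reaction. Detection reagent stopped it, and luminescence was read after 20 min.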

[2] = Tertiary RLuc qRT-PCR qHTS assay for Zika virus inhibitors (AID 1347169); further: nearly all actives have a fitted effect of over 55% in size
Summary of the method: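 Vero, 1,000 cells/well, o/n 37 C; cpd pinned in DMSO; ZIKV-RLuc Cambodian, MOI 1-2, 48-72 h 37 C; live-cell RLuc substrate, lum read at 1-1.5 h.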

[3] = qHTS of pediatric cancer cell lines to identify multiple opportunities for drug repurposing: Primary screen for DAOY cells (AID 1347090); conditions: DAOY medulloblastoma viability, CellTiter-Glo luminescence, 48 h; activity change, negative = cytotoxic: at 46 µM (top of the series); further: nearly all actives have a fitted effect of over 55% in size
Summary of the method: (§1)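 Eight- or eleven-point concentration series, 48 h treatment at 37 degrees C in growth media; readout CellTiter-Glo luminescence. Potency and efficacy were taken from the concentration-response curves.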

[4] = qHTS of pediatric cancer cell lines to identify multiple opportunities for drug repurposing: Primary screen for U-2 OS cells (AID 1347096); further: nearly all actives have a fitted effect of over 50% in size
Summary of the method: (§2)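 Cells (500-1,000/well) in growth media were settled 5 h at 37 degrees C, then given compounds for 48 h. Viability was read as CellTiter-Glo luminescence. Primary runs used MIPE at 11 points (0.78 nM-46 µM) and NPC at 8 points (0.59 nM-46 µM); follow-ups used 11 points.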

[5] = Quantitative High-Throughput drug screen in 47 multiple myeloma cell lines against the NCATS MIPE library collection: JIM1_ECACC cell viability assay (AID 1918964)
Summary of the method: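 Inhibition of cell viability is measured here. Each line was plated at 500 cells per well, treated with MIPE 4.0 drugs, kept 48 hours at 37C, then assayed for ATP content by CellTiter-Glo luminescence.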

[6] = Quantitative High-Throughput drug screen in 47 multiple myeloma cell lines against the NCATS MIPE library collection: MOLP8_DSMZ cell viability assay (AID 1918977); further: nearly all actives have a fitted effect of over 45% in size
Summary of the method: (§3)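 MIPE 4.0 approved/investigational drugs; 500 cells/well; 48 h 37 °C humidified 5% CO2; CTG luminescence readout; DMSO = 100%, media = 0% viability.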

[7] = Quantitative High-Throughput drug screen in 47 multiple myeloma cell lines against the NCATS MIPE library collection: OCIMY1_PLB cell viability assay (AID 1918979); further: nearly all actives have a fitted effect of over 35% in size
Summary of the method: as §3

[8] = Quantitative High-Throughput drug screen in 47 multiple myeloma cell lines against the NCATS MIPE library collection: L363_DSMZ cell viability assay (AID 1918984); conditions: L363 myeloma viability, CellTiter-Glo ATP luminescence, 48 h; series mostly up to 45.8 µM; further: nearly all actives have a fitted effect of over 40% in size
Summary of the method: as §3

[9] = Quantitative High-Throughput drug screen in 47 multiple myeloma cell lines against the NCATS MIPE library collection: UTMC2_PLB cell viability assay (AID 1919868); conditions: CellTiter-Glo ATP luminescence, 48 h; series mostly up to 45.8 µM; further: nearly all actives have a fitted effect of over 55% in size
Summary of the method: as §3

[10] = qHTS for identification of novel therapeutic agents for treatment of microphthalmiaassociated transcription factor (MiT) renal cell carcinoma (RCC) (AID 1963991; calls by dose curve); conditions: TFE3-RCC UOK109 viability, CellTiter-Glo, 48 h; active = Z-AUC below -0.8 in all three lines
Summary of the method: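 UOK109/UOK124/UOK145 (TFE3 fusions, three partners); 500 cells/well; MIPE v4.0, 1912 cpds, 11 conc.; 48 h, 37 C; CellTiter-Glo, 15 min RT; lum. Norm.: DMSO 100%, empty 0%.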

[11] = tested on: MCC-13; assay: qHTS assay to identify novel small-molecules to repurpose for Merkel cell carcinoma treatment (AID 1296009); conditions: MCC and control cell lines, CellTiter-Glo viability, 72 h; series mostly up to 46 µM; further: nearly all actives have a fitted effect of over 60% in size
Summary of the method: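 qHTS format: cells treated with library compounds in DMSO across 8 (NPC) or 11 (MIPE) concentrations. Readout after 72 hr at 37 degree celsius was CellTiter-Glo luminescence.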

[12] = qHTS of pediatric cancer cell lines to identify multiple opportunities for drug repurposing: Primary screen for SK-N-MC cells (AID 1347093); conditions: SK-N-MC viability, CellTiter-Glo luminescence, 48 h; activity change, negative = cytotoxic: at 46 µM (top of the series)
Summary of the method: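 Metabolically active cells were quantified by ATP-dependent luminescence (CellTiter-Glo, 15 min at room temperature) following 48 h treatment. Cells had been plated at 500-1,000 per well and settled for 5 h beforehand.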

[13] = qHTS of pediatric cancer cell lines to identify multiple opportunities for drug repurposing: Primary screen for Rh18 cells (AID 1347102); further: nearly all actives have a fitted effect of over 65% in size
Summary of the method: as §2

[14] = qHTS of pediatric cancer cell lines to identify multiple opportunities for drug repurposing: Primary screen for OHS-50 cells (AID 1347103); further: nearly all actives have a fitted effect of over 40% in size
Summary of the method: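 Cells (500-1,000/well) rested 5 h, then received compounds for 48 h; metabolically active cells were measured by CellTiter-Glo luminescence. Final concentrations spanned up to 46 µM (MIPE, 11-point) or 0.59 nM-46 µM (NPC, 8-point) in primary screens, 11-point in follow-ups.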

[15] = qHTS of pediatric cancer cell lines to identify multiple opportunities for drug repurposing: Primary screen for SJ-GBM2 cells (AID 1347091)
Summary of the method: as §1

[16] = Drug repurposing screens with cells derived from glioblastoma tumor samples (AID 1345199); conditions: GBM patient neurospheres viability, ATP luminescence, 48 h; Potency: tumour line A unless noted; series mostly up to 46 µM; further: nearly all actives have a fitted effect of over 40% in size
Summary of the method: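 Four patient lines of CD133+ GBM neurospheres were screened at several concentrations; hits were retested in those lines plus three slower-growing GBM lines, using 48-hour treatment and ATP-based viability.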

[17] = Quantitative High-Throughput drug screen in 47 multiple myeloma cell lines against the NCATS MIPE library collection: KHM11_PLB cell viability assay (AID 1918962); conditions: KHM11 myeloma cell viability, CellTiter-Glo ATP luminescence, 48 h; series mostly up to 45.8 µM; further: nearly all actives have a fitted effect of over 35% in size
Summary of the method: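 Viability readout: CellTiter-Glo luminescence following 5 min room-temperature incubation with reagent. Prior exposure: 48 h, 37C, humidified 5% CO2, 500 cells per well.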

Measured: Potency
Potency means the concentration at half of the fitted maximal effect; tags describe the fitted curve by direction and shape.

C=CC(=O)N1CCC(Oc2cc3c(Nc4ccc(Cl)c(Cl)c4F)ncnc3cc2OC)CC1
active: [1] 0.239 µM

CC(C)C[C@H](C(=O)O)c1cc(-c2ccc(C(F)(F)F)cc2)cc(-c2ccc(C(F)(F)F)cc2)c1
active: [2] 9.3 µM

C[C@H](NCc1ccc(OCc2cccc(F)c2)cc1)C(N)=O
active: [4] 18.7 µM | [5] 3.72 µM | [6] 2.64 µM | [7] 10.5 µM | [8] 1.48 µM | [9] 1.18 µM
inconclusive: [3] 37.2 µM [cytotoxic, single point] | [10] 16.6 µM [falling, partial curve] | [11] 29.6 µM [inhibitor, single point]

CO/N=C(\C(=O)N[C@@H]1C(=O)N2C(C(=O)O)=C(CSc3nc(=O)c(O)nn3C)CS[C@H]12)c1csc(N)n1
inactive: [12] | [13] | [14]

CCCOC(=O)c1ccccc1
inactive: [15] | [16]

CCOC(=O)[C@H](CCc1ccccc1)N[C@@H](C)C(=O)N1[C@H](C(=O)O)C[C@@H]2CCC[C@@H]21
inconclusive: [12] 0.0024 µM [cytotoxic, full curve, poor fit] | [16] 8.91 µM [inhibitor, full curve, poor fit]
inactive: [15]

O=C(C=CC#Cc1cccc(NS(=O)(=O)c2ccccc2)c1)NO
inconclusive: [8] 1.66 µM [cytotoxic, full curve, poor fit] | [10] 13.2 µM [falling, partial curve]
active: [13] 1.66 µM | [17] 2.35 µM | [6] 0.935 µM | [7] 2.96 µM | [9] 0.833 µM | [11] 14.8 µM

CCOC(=O)[C@H](CCc1ccccc1)N[C@@H](C)C(=O)N1[C@@H](C(=O)O)C[C@H]2CCC[C@@H]21
inconclusive: [6] 20.9 µM [cytotoxic, partial curve, poor fit] | [9] 11.8 µM [cytotoxic, partial curve, poor fit] | [10] 16.6 µM [falling, partial curve]
active: [3] 14.8 µM | [15] 20.9 µM | [4] 18.7 µM | [13] 16.6 µM | [17] 9.35 µM | [5] 5.26 µM | [7] 26.4 µM | [8] 7.43 µM

Cc1ccc(-c2ccc3ncc4c(c3n2)n(C2CCN(C(=O)[C@H](C)O)CC2)c(=O)n4C)cn1
inconclusive: [1] 21.3 µM [falling, partial curve]

Cc1ccc(C(=O)N2CCN(c3ccc([N+](=O)[O-])cc3)CC2)cc1Cl
inactive: [1]

Cc1ccc(C(=O)Nc2ccc(CN3CCN(C)CC3)c(C(F)(F)F)c2)cc1C#Cc1cnc2[nH]ncc2c1
active: [1] 6.01 µM

COc1cc(OC)c(C=CS(=O)(=O)Cc2ccc(OC)c(NCC(=O)O)c2)c(OC)c1
inconclusive: [3] 0.0469 µM [cytotoxic, full curve, poor fit] | [4] 0.235 µM [cytotoxic, full curve, poor fit] | [17] 0.166 µM [cytotoxic, full curve] | [10] 1.05 µM [falling, full curve] | [11] 0.148 µM [inhibitor, full curve]
active: [15] 0.166 µM | [14] 0.172 µM | [5] 0.0372 µM | [8] 0.0469 µM | [9] 0.166 µM

Cc1cc(N2CCOCC2)cc2[nH]c(-c3c(NC[C@@H](O)c4cccc(Cl)c4)cc[nH]c3=O)nc12
active: [4] 18.7 µM | [6] 11.8 µM | [7] 0.296 µM | [8] 0.148 µM | [9] 0.0662 µM
inconclusive: [2] 14.7 µM [inhibitor, partial curve] | [17] 0.935 µM [cytotoxic, full curve, poor fit] | [5] 0.132 µM [cytotoxic, full curve] | [10] 1.05 µM [falling, full curve] | [11] 14.8 µM [inhibitor, partial curve]

CCCCCCOc1cc2c(cc1N(C)c1ncc(C(=O)O)cn1)C(C)(C)CCC2(C)C
active: [2] 20.8 µM
